Drawing on paper PMC7320043, this text covers binding for 24 molecules.

Sequences and labels used below:
B1: Kelch-like 12 (Drosophila), two-hybrid prey (domain or fragment, UniProt Q53G59 1-162)
chain: MGGIMAPKDIMTNTHAKSILNSMNSLRKSNTLCDVTLRVEQKDFPAHRIVLAACSDYFCAMFTSELSEKGKPYVDIQGLTASTMEILLDFVYTETVHVTVENVQELLPAACLLQLKGVKQACCEFLESQLDPSNCLGIRDFAETHNCVDLMQAAEVFSQKHF
B2: Coiled-coil domain containing 147, two-hybrid prey (domain or fragment, UniProt Q5T655 478-684)
chain: AESEIKLKQQQNLYEAVRSDRNLYSKNLVEAQDEITDMKRKLKIMIHQVDELKEDISAKESALVKLHLEQQRIEKEKETLKAELQKLRQQALETKHFIEKQEAEERKLLRIIAEADGERLRQKKELDQVISERDILGSQLVRRNDELALLYEKIKIQQSVLNKGESQYNQRLEDMRILRLEIKKLRREKGILARSMANVEELRQEFF
B3: Adenylate kinase domain containing 1, two-hybrid prey (domain or fragment, UniProt Q5TCS8 415-624)
chain: YKGKVVDYAQLVQPRFDKARETLVENTIAEATAAAIKVVKEKLLRELQARKQAETALREFQRQYEKMEFGVFPMEATHSSIDEEGYIQGSQRDRGSSLVDTEEAKTKSENVLHDQAAKVDKDDGKETGETFTFKRHSQDASQDVKLYSDTAPTEDLIEEVTADHPEVVTMIEETIKMSQDINFEQPYEKHAEILQEVLGEVMEENKDRFP
B4: Tropomodulin 1, two-hybrid prey (domain or fragment, UniProt P28289 66-334)
chain: ELLDHLEKQAKEFKDREDLVPYTGEKRGKVWVPKQKPLDPVLESVTLEPELEEALANASDAELCDIAAILGMHTLMSNQQYYQALSSSSIMNKEGLNSVIKPTQYKPVPDEEPNSTDVEETLERIKNNDPKLEEVNLNNIRNIPIPTLKAYAEALKENSYVKKFSIVGTRSNDPVAYALAEMLKENKVLKTLNVESNFISGAGILRLVEALPYNTSLVEMKIDNQSQPLGNKVEMEIVSMLEKNATLLKFGYHFTQQGPRLRASNAMMN
B5: Proteasome (prosome, macropain) activator subunit 4, two-hybrid prey (domain or fragment, UniProt Q14997 367-420)
chain: RLHRERYKKPSWLTPVPDSHKLTDQDVTDFVQCIIQPVLLAMFSKTGSLEAAQA
B6: Acyl-CoA synthetase bubblegum family member 2, two-hybrid prey (domain or fragment, UniProt Q5FVE4 528-666)
chain: PVETLVKKKIPIISNAMLVGDKLKFLSMLLTLKCEMNQMSGEPLDKLNFEAINFCRGLGSQASTVTEIVKQQDPLVYKAIQQGINAVNQEAMNNAQRIEKWVILEKDFSIYGGELGPMMKLKRHFVAQKYKKQIDHMYH
B7: Intraflagellar transport 46 homolog (Chlamydomonas), two-hybrid prey (domain or fragment, UniProt Q9NQC8 1-216)
chain: MADNSSDECEEENNKEKKKTSQLTPQRGFSENEDDDDDDDDSSETDSDSDDDDEEHGAPLEGAYDPADYEHLPVSAEIKELFQYISRYTPQLIDLDHKLKPFIPDFIPAVGDIDAFLKVPRPDGKPDNLGLLVLDEPSTKQSDPTVLSLWLTENSKQHNITQHMKVKSLEDAEKNPKAIDTWIESISELHRSKPPATVHYTRPMPDIDTLMQEWSP
B8: Family with sequence similarity 190, member A, two-hybrid prey (domain or fragment, UniProt Q9C0I3 555-726)
chain: MEPMIEMKKREEPEFPEPSKQNLSLKLTKDVDQEARCSHISRMPNSPSADWPLQGVEENGGIDSLPFRLMLQDCTAVKTLLLKMKRVLQESADMSPASSTTSLPVSPLTEEPVPFKDIMKDECSMLKLQLKEKDELISQLQEELGKVRHLQKAFASRVDKSTQTELLCYDGL
B9: Serine carboxypeptidase 1, two-hybrid prey (domain or fragment, UniProt Q9HB40 273-452)
chain: LTKSTPTSTMESSLEFTQSHLVCLCQRHVRHLQRDALSQLMNGPIRKKLKIIPEDQSWGGQATNVFVNMEEDFMKPVISIVDELLEAGINVTVYNGQLDLIVDTMGQEAWVRKLKWPELPKFSQLKWKALYSDPKSLETSAFVKSYKNLAFYWILKAGHMVPSDQGDMALKMMRLVTQQE
B10: EURL/Chromosome 21 open reading frame 91, two-hybrid prey (domain or fragment, UniProt Q9NYK6 1-178)
chain: MNEEEQFVNIDLNDDNICSVCKLGTDKETLSFCHICFELNIEGVPKSDLLHTKSLRGHKDCFEKYHLIANQGCPRSKLSKSTYEEVKTILSKKINWIVQYAQNKDLDSDSECSKNPQHHLFNFRHKPEEKLLPQFDSQVPKYSAKWIDGSAGGISNCTQRILEQRENTDFGLSMLQDS
B11: Acid phosphatase-like 2, two-hybrid prey (domain or fragment, UniProt Q8TE99 266-464)
chain: LKNSQLEKTYGEMAKIVDVPTKQLRAANPIDSMLCHFCHNVSFPCTRNGCVDMEHFKVIKTHQIEDERERREKKLYFGYSLLGAHPILNQTIGRMQRATEGRKEELFALYSAHDVTLSPVLSALGLSEARFPRFAARLIFELWQDREKPSEHSVRILYNGVDVTFHTSFCQDHHKRSPKPMCPLENLVRFVKRDMFVAL
B12: Propionyl CoA carboxylase, beta polypeptide, two-hybrid prey (domain or fragment, UniProt P05166 172-468)
chain: SLAGYADIFLRNVTASGVIPQISLIMGPCAGGAVYSPALTDFTFMVKDTSYLFITGPDVVKSVTNEDVTQEELGGAKTHTTMSGVAHRAFENDVDALCNLRDFFNYLPLSSQDPAPVRECHDPSDRLVPELDTIVPLESTKAYNMVDIIHSVVDEREFFEIMPNYAKNIIVGFARMNGRTVGIVGNQPKVASGCLDINSSVKGARFVRFCDAFNIPLITFVDVPGFLPGTAQEYGGIIRHGAKLLYAFAEATVPKVTVITRKAYGGAYDVMSSKHLCGDTNYAWPTAEIAVMGAKGA
B13: PHD finger protein 7, two-hybrid prey (domain or fragment, UniProt Q9BWX1 50-236)
chain: LQKDNISVHYFCLILSSKLPQRGQSNRGFHGFLPEDIKKEAARASRKICFVCKKKGAAINCQKDQCLRNFHLPCGQERGCLSQFFGEYKSFCDKHRPTQNIQHGHVGEESCILCCEDLSQQSVENIQSPCCSQAIYHRKCIQKYAHTSAKHFFKCPQCNNRKEFPQEMLRMGIHIPDRDAAWELEPG
B14: Kelch-like 7 (Drosophila), two-hybrid prey (domain or fragment, UniProt Q8IXQ5 37-240)
chain: MRKQKTLCDVILMVQERKIPAHRVVLAAASHFFNLMFTTNMLESKSFEVELKDAEPDIIEQLVEFAYTARISVNSNNVQSLLDAANQYQIEPVKKMCVDFLKEQVDASNCLGISVLAECLDCPELKATADDFIHQHFTEVYKTDEFLQLDVKRVTHLLNQDTLTVRAEDQVYDAAVRWLKYDEPNRQPFMVDILAKVRFPLISK
B15: Filamin A interacting protein 1-like, two-hybrid prey (domain or fragment, UniProt Q4L180 508-705)
chain: SEKLKKTEDKLQAASSQLQVEQNKVTTVTEKLIEETKRALKSKTDVEEKMYSVTKERDDLKNKLKAEEEKGNDLLSRVNMLKNRLQSLEAIEKDFLKNKLNQDSGKSTTALHQENNKIKELSQEVERLKLKLKDMKAIEDDLMKTEDEYETLERRYANERDKAQFLSKELEHVKMELAKYKLAEKTETSHEQWLFKRL
B16: Rearranged L-myc fusion, two-hybrid prey (domain or fragment, UniProt Q13129 1670-1914)
chain: GTLKCNHSSKTTSLEQCNIVQPPPPCKIENSIPNPNGTESGTYFTSFQLPLPRIKESETRQHSSGQENTVKNPTHVPKENFRKHSQPRSFDLKTYKPMGFESSFLKFIQESEEKEDDFDDWEPSEHLTLSNSSQSSNDLTGNVVANNMVNDSEPEVDIPHSSSDSTIHENLTAIPPLIVAETTTVPSLENLRVVLDKALTDCGELALKQLHYLRPVVVLERSKFSTPILDLFPTKKTDELCVGSS
B17: Indoleamine 2,3-dioxygenase 1, two-hybrid prey (domain or fragment, UniProt P14902 14-128)
chain: EYHIDEEVGFALPNPQENLPDFYNDWMFIAKHLPDLIESGQLRERVEKLNMLSIDHLTDHKSQRLARLVLGCITMAYVWGKGHGDVRKVLPRNIAVPYCQLSKKLELPPILVYAD
B18: Electron-transfer-flavoprotein, alpha polypeptide, two-hybrid prey (domain or fragment, UniProt P13804 103-284)
chain: FNYTHICAGASAFGKNLLPRVAAKLEVAPISDIIAIKSPDTFVRTIYAGNALCTVKCDEKVKVFSVRGTSFDAAATSGGSASSEKASSTSPVEISEWLDQKLTKSDRPELTGAKVVVSGGRGLKSGENFKLLYDLADQLHAAVGASRAAVDAGFVPNDMQVGQTGKIVAPELYIAVGISGAI
B19: Secretogranin V (7B2 protein), two-hybrid prey (domain or fragment, UniProt P05408 1-188)
chain: MVSRMVSTMLSGLLFWLASGWTPAFAYSPRTPDRVSEADIQRLLHGVMEQLGIARPRVEYPAHQAMNLVGPQSIEGGAHEGLQHLGPFGNIPNIVAELTGDNIPKDFSEDQGYPDPPNPCPVGKTADDGCLENTPDTAEFSREFQLHQHLFDPEHDYPGLGKWNKKLLYEKMKGGERRKRRSVNPYLQ
B20: Transforming growth factor, beta-induced, 68 kDa, two-hybrid prey (domain or fragment, UniProt Q15582 115-326)
chain: STTTQLYTDRTEKLRPEMEGPGSFTIFAPSNEAWASLPAEVLDSLVSNVNIELLNALRYHMVGRRVLTDELKHGMTLTSMYQNSNIQIHHYPNGIVTVNCARLLKADHHATNGVVHLIDKVISTITNNIQQIIEIEDTFETLRAAVAASGLNTMLEGNGQYTLLAPTNEAFEKIPSETLNRILGDPEALRDLLNNHILKSAMCAEAIVAGLS
B21: Methionyl aminopeptidase 2, two-hybrid prey (domain or fragment, UniProt P50579 323-342)
chain: KPIRNLNGHSIGQYRIHAGK
B22: S1 RNA binding domain 1, two-hybrid prey (domain or fragment, UniProt Q8N5C6 260-491)
chain: SLREVQQTLEELRAVAKKVHSTIQKIKKEGKMSECLLKAMLNCKTFEELEHVSAPYKTGSKGTKAQRARQLGLEGAARALLEKPGELSLLSYIRPDVKGLSTLQDIEIGVQHILADMIAKDKDTLDFIRNLCQKRHVCIQSSLAKVSSKKVNEKDVDKFLLYQHFSCNIRNIHHHQILAINRGENLKVLTVKVNISDGVKDEFCRWCIQNRWRPRSFARPELMKILYNSLND
B23: Taspase, threonine aspartase, 1, two-hybrid prey (domain or fragment, UniProt Q9H6P5 135-318)
chain: GIKNPVSVANRLLCEGQKGKLSAGRIPPCFLVGEGAYRWAVDHGIPSCPPNIMTTRFSLAAFKRNKRKLELAERVDTDFMQLKKRRQSSEKENDSGTLDTVGAVVVDHEGNVAAAVSSGGLALKHPGRVGQAALYGCGCWAENTGAHNPYSTAVSTSGCGEHLVRTILARECSHALQAEDAHQA
B24: Zinc finger, MYM-type 2, two-hybrid prey (domain or fragment, UniProt Q9UBW7 141-390)
chain: RRPPETKNRTNDVDFSTSSFSRSKVNAGMGNSGITTEPDSEIQIANVTTLETGVSSVNDGQLENTDGRDMNLMITHVTSLQNTNLGDVSNGLQSSNFGVNIQTYTPSLTSQTKTGVGPFNPGRMNVAGDVFQNGESATHHNPDSWISQSASFPRNQKQPGVDSLSPVASLPKQIFQPSVQQQPTKPVKVTCANCKKPLQKGQTAYQRKGSAHLFCSTTCLSSFSHKPAPKKLCVMCKKDITTMKGTIVAQ

Results are given in words; binding and its absence hold for the method and conditions named. Some binding calls cover weakened binding; strength is not graded here. Sequences can lack the tags named with a protein.

This assay has as its target Fbxl17 two-hybrid bait, FBD and LRRs (321-701aa) (human) (UniProt Q9UF56). As to the kind of experiment: two-hybrid; Matchmaker Gold system (Clontech); bait Fbxl17 aa 321 to 701 in pGBKT7; screen of a normalized universal human cDNA library (Mate & Plate) with prey fused to the Gal4 activation domain.
Turning to B1, the binding result is on record as “binds”.

Consider B2, for which the binding entry is on record as “binds”.

As to B3, the binding entry was “binds”.

Regarding B4, the binding result is given as “binds”.

Turning to B5, the binding result was “binds”.

Regarding B6, the binding entry is “binds”.

On to B7, for which the binding result was “binds”.

For the molecule B8, the binding entry is given as “binds”.

Consider B9, for which the binding result is recorded as “binds”.

For B10, the binding entry is “binds”.

With B11, the binding entry was “binds”.

For B12, the binding entry was “binds”.

Turning to B13, the binding entry is “binds”.

On to B14, for which the binding entry is reported as “binds”.

Consider B15, for which the binding result is recorded as “binds”.

On to B16, for which the binding entry was “binds”.

B17: the binding result is listed as “binds”.

Consider B18, for which the binding entry was “binds”.

With B19, the binding result is “binds”.

B20: the binding result is “binds”.

For B21, the binding entry is “binds”.

Regarding B22, the binding result is reported as “binds”.

As to B23, the binding entry is recorded as “binds”.

As for B24, the binding entry was “binds”.
